Measurements from the supplement of paper PMC11383711.
Some of the results follow. Binding of human antibodies (heavy:light variable regions, tested as scFv in one mRNA-display pool) to influenza hemagglutinin, with or without the stem antibody CR9114 bound first. Score = (mean enrichment − median) / interquartile range of that screen; higher = more enriched, 0 = typical non-binder. Active = above the paper's cut-off per screen: stems 28; unblocked H1 Solomon Islands 5, H1 Michigan 3, H3 5, H5 19, H7 2.85, both B 5; blocked 9, 7, H5 10, H7 10, B Phuket 10, B Lee 11.5. Scores are scaled within each screen and are no affinities; replicates correlate at about 0.6 to 0.9, and antibodies rare in the pool are noisier.

How the values were obtained:
Assay in all cases: mRNA display binding score; higher = more enriched on the antigen
[1] = target: Influenza A H1N1 A/Michigan/45/2015 hemagglutinin ectodomain
Experimental: (§1)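 A pool of natively paired antibodies, displayed as scFv on mRNA, was selected once on antigen-coated beads and sequenced before and after; two replicates.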

[2] = target: Influenza A H1N1 A/Solomon Islands/3/2006 hemagglutinin ectodomain
Experimental: as §1

[3] = target: Influenza A H3N2 A/Singapore/INFIMH-16-0019/2016 hemagglutinin ectodomain; conditions: antigen blocked with: nothing
Experimental: as §1

[4] = target: Influenza A H5N1 A/Qinghai/1A/2005 hemagglutinin ectodomain
Experimental: as §1

[5] = target: Influenza A H7N9 A/Shanghai/2/2013 hemagglutinin ectodomain
Experimental: as §1

[6] = target: Influenza B/Lee/1940 hemagglutinin ectodomain
Experimental: as §1

[7] = target: Influenza B/Phuket/3073/2013 hemagglutinin ectodomain
Experimental: as §1

[8] = antigen blocked with: 2 µM CR9114 IgG

Measured: mRNA display binding score

B1: K77-1C11 (protein)
chain 1: QVQLQESGPGLVKPSETLSLSCTVSGGSISTYDWSWIRQSPGKGLEWIGCIYYIGRTEYNPSLKSRVTISVDTSKNQFSLKLSSVTAADTAVYYCARDGRGYSGYDYYNYYGMDAWGQGTTVTVSS
chain 2: NFMLTQPHSVSESPGKTVVISCTRSSGSIDSNYVQWYQQRPGSSPTIVIYVDNQRPSGVPDRFSGSIDSASNSASLTISGLKTEDEADYYCQSNDNNNRVFGGGTKLTVL
inactive: [1]; [8] -0.0887 | [1]; antigen blocked with: nothing 0.129 | [2]; [8] -0.0162 | [2]; antigen blocked with: nothing 0.133 | [3] 0.0997 | [4]; [8] -0.109 | [4]; antigen blocked with: nothing 0.204 | [5]; [8] -0.0241 | [5]; antigen blocked with: nothing 0.15 | [6]; [8] 0.0633 | [6]; antigen blocked with: nothing -0.171 | [7]; [8] 0.233 | [7]; antigen blocked with: nothing -0.0805

B2: 01.z.01 (protein)
chain 1: QVQLQESGPGLVKPSQTLSLTCTVSGGSITNDDSYWSWIRQTPGKGLEWIGYIFHSGNTYYNPSLKSRVTISVDTSKNQFSLEVTSVTAADTAVYYCARDTGVIKDEYFYYYGLDVWGQGTTVTVSS
chain 2: EIVMTQSPATLSVSPGERATLSCRAGQSVNTNLAWFQQKPGQAPRLLIYGASTRATGIPARFSGSGSGTEFTLTISSLQSEDCAVYYCQQYNQWPLNTFGQGTKLEIK
active: [3] 5.64 | [4]; antigen blocked with: nothing 19.7 | [5]; [8] 16.7
inactive: [1]; [8] 2.27 | [1]; antigen blocked with: nothing 0.617 | [2]; [8] 0.222 | [2]; antigen blocked with: nothing 0.286 | [4]; [8] 9.42 | [5]; antigen blocked with: nothing 0.49 | [6]; [8] 0.225 | [6]; antigen blocked with: nothing 0.246 | [7]; [8] 0.0108 | [7]; antigen blocked with: nothing -0.15

B3: antibody 4F05 (protein)
chain 1: VQLQQWGAGVWRPSETLSLTCGVSGGSFNGNYWTWIRQSPGKGLEWMGEVDDNGRTNYNPSLTGRVSMSVDTTKKQFSLNLTSMTAADTAVYYCARRGSGSRLVRADYYIDVWGQGTTVTVSS
chain 2: EIVLTQSPGILSLSPGERATLSCRASQTVGSSYLAWYQQRPGQPPRLLIFGSSTRATGVPDRFSGSGSGTDFTLTISRLEPEDFAVYYCQRYGPSPRFTFGPGTKVDIK
inactive: [1]; [8] 0.664 | [1]; antigen blocked with: nothing 1.7 | [2]; [8] 0.528 | [2]; antigen blocked with: nothing 1.33 | [3] 1.05 | [4]; [8] 4.33 | [4]; antigen blocked with: nothing 4.41 | [5]; [8] 0.525 | [5]; antigen blocked with: nothing 1.8 | [7]; [8] 6.88
active: [6]; [8] 21.7 | [6]; antigen blocked with: nothing 42.4 | [7]; antigen blocked with: nothing 5.89

B4: AG10-3A02 (protein)
chain 1: VQLVESGGGLVQPGGSLRLSCLGSGFTFSRYSMNWVRQAPGKGLEWVSYISDSSRTIYYADSVKGRFTIFRDNAKNSLYLQMNSLRDEDTAVYYCARDPDTAHDRYFDSWGQGTLVTVSS
chain 2: DIQLTQSPSFLSASVGDRVTITCRASQVIGSYFAWYQQKPGKAPKLLIYATSTLQSGVPSRFSGSGSGTEFTLTISGLQPEDFATYYCQQLNTYPPITFGPGTKVDIK
active: [7]; [8] 26.8 | [7]; antigen blocked with: nothing 22.8
inactive: [1]; [8] 1.2 | [1]; antigen blocked with: nothing 1.7 | [2]; [8] 1.13 | [2]; antigen blocked with: nothing 1.33 | [3] 0.86 | [4]; [8] 7.72 | [4]; antigen blocked with: nothing 7.25 | [5]; [8] 0.224 | [5]; antigen blocked with: nothing 2.07 | [6]; [8] -0.596 | [6]; antigen blocked with: nothing 0.455

B5: C6-G03 (protein)
chain 1: VQLVESGGGLVQPGRSLRLSCAASGFSFDDFAMHWVRQAPGKGLEWVSGVTWNSGSRDYADSVKGRFTISRDNDKNSLSLQMNSLRPEDTAVYYCVKGRGGVYTGYGPRYLDYWGQGTLVTVS
chain 2: DIQMTQSPTSLSASVGDRVSITCRASQSVITYLHWYQQKPGKAPKLLISAASSLQSGVSSRFSGSGSGTDFTLTISSLQPEDYATYYCQQSYSSPRTFGPGTKVDIK
inactive: [1]; [8] -0.00872 | [1]; antigen blocked with: nothing 0.917 | [2]; [8] 0.085 | [2]; antigen blocked with: nothing 0.181 | [3] 0.0979 | [4]; [8] 0.33 | [4]; antigen blocked with: nothing 0.319 | [5]; [8] -0.702 | [5]; antigen blocked with: nothing 0.865 | [6]; [8] -0.742 | [6]; antigen blocked with: nothing -0.188 | [7]; [8] -0.068 | [7]; antigen blocked with: nothing 0.0863

B6: R95-2A08 (protein)
chain 1: EVQLVESGGGLVQPGGSLRLSCAASGFIVNKNHMNWVRQAPGKGLEWVSVIYSGGNPYHADSVEGRFTISRDISKNTVHLQMNSLGAEDTAVYYCARDGGGWYVNDAFDIWGQGTTVTVSS
chain 2: QSALTQPASVSGSPGQSITISCTGTSSDIGGYNYVSWYQQHPGKAPKLIIFEVTTRPSGISNRFSGSKSGNTASLTISGLQAEDEADYYCSSYRSTTDVLFGGGTKVTVL
active: [6]; antigen blocked with: nothing 6.16
inactive: [1]; [8] -0.159 | [1]; antigen blocked with: nothing -0.428 | [2]; [8] -0.322 | [2]; antigen blocked with: nothing -0.466 | [3] -0.545 | [4]; [8] 0.00718 | [4]; antigen blocked with: nothing -0.25 | [5]; [8] 0.438 | [5]; antigen blocked with: nothing -0.399 | [6]; [8] 0.00685 | [7]; [8] -0.43 | [7]; antigen blocked with: nothing -0.231
